# From the antibiotic and cytotoxicity screens of Wong et al. (2023)
# This is one part of the list.
# What was measured:
# HSkMC = human skeletal muscle cells; assay: cytotoxicity call (relative viability < 0.9); details: 10 µM
# HepG2 = assay: cytotoxicity call (relative viability < 0.9); details: 10 µM
# S. aureus RN4220 = assay: growth inhibition call (relative growth <= 0.2); details: 50 µM
SMILES,cytotoxicity call (HSkMC),cytotoxicity call (HepG2),growth inhibition call (S. aureus RN4220)
O=C(C[C@@H]1C=C[C@H](NS(=O)(=O)c2ccccc2)[C@@H](CO)O1)NCc1ccncn1,inactive,inactive,inactive
O=C(CCCCCNC(=O)OCc1ccc(CO[C@@H]2C[C@H](C3CCCCC3)C=C(C(=O)N3CCN(Cc4ccc5c(c4)OCO5)CC3)O2)cc1)NO,inactive,inactive,inactive
CCS(=O)(=O)Nc1ccc2c(c1)C(=O)N(C)[C@@H]1CC[C@H](CC(=O)NCc3ccccc3F)O[C@H]1CO2,inactive,inactive,inactive
CN(C)C=C(C=[N+](C)C)c1[nH]ncc1N,inactive,inactive,inactive
C[C@@H]1CN([C@H](C)CO)C(=O)c2cccc(NC(=O)Nc3ccc(C(F)(F)F)cc3)c2O[C@H]1CN(C)Cc1ccccc1,inactive,inactive,inactive
COC(=O)C=Cc1cc(OC)c(OC)c(OC)c1,inactive,inactive,inactive
C[C@H]1CN([C@@H](C)CO)C(=O)c2cccc(NS(=O)(=O)c3cn(C)cn3)c2O[C@H]1CN(C)C(=O)NC1CCCCC1,inactive,inactive,inactive
COc1ccc(-c2cnc3c(c2)C(=O)N([C@@H](C)CO)C[C@@H](C)[C@H](CN(C)C(=O)Cc2cccnc2)O3)cc1,inactive,inactive,inactive
C[C@H](CO)N1C[C@H](C)[C@H](CN(C)Cc2ccccc2)Oc2ccc(NC(=O)CCN3CCOCC3)cc2CC1=O,inactive,inactive,inactive
COc1ccc(C=CC(=O)c2ccccc2)cc1,inactive,active,inactive
C[C@@H]1CN([C@H](C)CO)C(=O)CCCn2nncc2CO[C@H]1CN(C)C(=O)Nc1ccc(N2CCN(C)CC2)cc1,inactive,inactive,inactive
C[C@H]1CCCCO[C@H](CN(C)C(=O)Nc2ccccc2)[C@@H](C)CN([C@@H](C)CO)C(=O)c2cc(NC(=O)Nc3ccccc3)ccc2O1,inactive,inactive,inactive
CCCNC(=O)N1C[C@@H](O)COC[C@H]2O[C@H](CC(=O)N3CCOCC3)CC[C@@H]21,inactive,inactive,inactive
C[C@@H]1CN([C@H](C)CO)C(=O)c2cc(NS(=O)(=O)c3ccccc3)ccc2O[C@@H](C)CCCCO[C@H]1CN(C)C(=O)Nc1ccc2c(c1)OCO2,inactive,inactive,inactive
Cc1noc(C)c1NC(=O)Nc1ccc2c(c1)C(=O)N([C@H](C)CO)C[C@@H](C)[C@@H](CN(C)S(=O)(=O)c1cccs1)OCCCC[C@H](C)O2,inactive,inactive,inactive
C=CCOC(=O)[C@H]1[C@@H]2C(=O)O[C@@H](c3ccccc3)[C@@H](c3ccccc3)N2[C@@H](c2ccc(OCCOC(=O)[C@H]3C[C@H]4C(=O)N[C@@H](Cc5ccccc5)C(=O)N4[C@H]3c3cccc(OCCO)c3)cc2)[C@]12C(=O)Nc1ccc(I)cc12,inactive,inactive,inactive
C[C@@H]1CN([C@@H](C)CO)C(=O)c2cc(NC(=O)CCC(F)(F)F)ccc2O[C@@H]1CN(C)Cc1ccc(C(=O)Nc2ccccc2N)cc1,inactive,inactive,inactive
C[C@@H]1CN([C@H](C)CO)C(=O)Cc2cc(NS(=O)(=O)c3cccs3)ccc2O[C@@H]1CN(C)Cc1ccc(-c2ccccc2)cc1,inactive,inactive,inactive
C[C@H]1CN([C@@H](C)CO)C(=O)c2cc(NS(C)(=O)=O)ccc2O[C@@H]1CN(C)S(=O)(=O)c1ccc(F)cc1,inactive,inactive,inactive
C[C@@H]1CN([C@@H](C)CO)C(=O)c2cccc(NS(=O)(=O)c3cn(C)cn3)c2O[C@H]1CN(C)Cc1ccc(C(=O)Nc2ccccc2N)cc1,inactive,inactive,inactive
COCC#Cc1cnc2c(c1)C(=O)N([C@@H](C)CO)C[C@@H](C)[C@H](CN(C)C(C)=O)O2,inactive,inactive,inactive
C[C@H](CO)N1C[C@H](C)[C@H](CN(C)C(=O)Nc2ccc(C(F)(F)F)cc2)OCCCC[C@H](C)Oc2ccc(NC(=O)Nc3ccccc3)cc2C1=O,inactive,inactive,inactive
CCNC(=O)C[C@@H]1CC[C@H](NC(=O)C2CC2)[C@@H](CO)O1,inactive,inactive,inactive
CCCCCCCC/C=C\CCCCCCCC(N)=O,inactive,inactive,inactive
C[C@H](CO)N1C[C@H](C)[C@H](CN(C)Cc2ccc(C(=O)O)cc2)Oc2ccc(NS(=O)(=O)c3cn(C)cn3)cc2C1=O,inactive,inactive,inactive
